Results are given in words; binding and its absence hold for the method and conditions named. Sequences can lack the tags named with a protein. Blank lines part the entries; values can stand above or below the binder they belong to.
Tests used:
[1] = molecular target: T1, ISLR-GFP (human), O14498; experiment: flow cytometry on cells; high-throughput cell-cell screen: HEK293F query cells (C-terminal mCherry fusion) mixed 1:1 in 96-well format with cells each expressing one member of the Ig/TNFR superfamily library (C-terminal GFP); double-positive events as % bound; PBS 0.2% BSA, pH 7.4; details: remark: other sources report otherwise
T1 chain: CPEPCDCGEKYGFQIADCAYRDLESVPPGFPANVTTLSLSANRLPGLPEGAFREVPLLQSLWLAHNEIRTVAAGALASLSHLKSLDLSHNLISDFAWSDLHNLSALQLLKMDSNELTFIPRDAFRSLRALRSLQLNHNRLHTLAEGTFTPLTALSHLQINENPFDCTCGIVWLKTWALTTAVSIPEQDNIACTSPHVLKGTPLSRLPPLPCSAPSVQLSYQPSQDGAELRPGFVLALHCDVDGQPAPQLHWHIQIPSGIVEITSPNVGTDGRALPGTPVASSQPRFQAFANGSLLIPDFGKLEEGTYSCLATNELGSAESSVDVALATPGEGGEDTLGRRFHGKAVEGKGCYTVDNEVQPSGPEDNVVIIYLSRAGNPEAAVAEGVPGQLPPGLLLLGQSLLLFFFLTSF

[2] = molecular target: T2, ISLR2-GFP (human), Q6UXK2; experiment: as above; details: remark: other sources report otherwise
T2 chain: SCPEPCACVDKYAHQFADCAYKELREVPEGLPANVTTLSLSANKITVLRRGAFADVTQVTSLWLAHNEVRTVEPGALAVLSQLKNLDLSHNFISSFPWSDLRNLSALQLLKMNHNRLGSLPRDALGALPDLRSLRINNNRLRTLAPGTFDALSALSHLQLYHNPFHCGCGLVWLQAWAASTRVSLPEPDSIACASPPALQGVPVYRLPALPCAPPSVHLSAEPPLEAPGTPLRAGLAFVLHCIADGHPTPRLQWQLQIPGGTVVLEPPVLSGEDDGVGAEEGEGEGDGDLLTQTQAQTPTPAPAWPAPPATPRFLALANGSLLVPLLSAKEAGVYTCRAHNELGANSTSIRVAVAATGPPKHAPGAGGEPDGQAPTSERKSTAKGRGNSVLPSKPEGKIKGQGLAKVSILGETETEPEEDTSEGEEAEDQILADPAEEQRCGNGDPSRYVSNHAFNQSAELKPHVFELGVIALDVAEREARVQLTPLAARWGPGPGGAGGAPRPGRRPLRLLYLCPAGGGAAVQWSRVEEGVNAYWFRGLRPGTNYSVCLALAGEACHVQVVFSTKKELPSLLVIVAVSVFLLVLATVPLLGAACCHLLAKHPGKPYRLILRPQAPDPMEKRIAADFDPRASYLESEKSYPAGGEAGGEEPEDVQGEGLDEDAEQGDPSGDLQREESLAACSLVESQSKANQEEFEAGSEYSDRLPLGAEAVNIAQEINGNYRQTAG

binding [1]: no binding
B1: human p75 neurotrophin receptor-GFP, P08138 29-427 (receptor)
chain: KEACPTGLYTHSGECCKACNLGEGVAQPCGANQTVCEPCLDSVTFSDVVSATEPCKPCTECVGLQSMSAPCVEADDAVCRCAYGYYQDETTGRCEACRVCEAGSGLVFSCQDKQNTVCEECPDGTYSDEANHVDPCLPCTVCEDTERQLRECTRWADAECEEIPGRWITRSTPPEGSDSTAPSTQEPEAPPEQDLIASTVAGVVTTVMGSSQPVVTRGTTDNLIPVYCSILAAVVVGLVAYIAFKRWNSCKQNKQGANSRPVNQTPPPEGEKLHSDSGISVDSQSLHDQQPHTQTASGQALKGDGGLYSSLPPAKREEVEKLLNGSAGDTWRHLAGELGYQPEHIDSFTHEACPVRALLASWATQDSATLDALLAALRRIQRADLVESLCSESTATSPV

binding [2]: no binding
B2: human B7-1-mCherry fusion protein, P33681 35-288 (ligand)
chain: VIHVTKEVKEVATLSCGHNVSVEELAQTRIYWQKEKKMVLTMMSGDMNIWPEYKNRTIFDITNNLSIVILALRPSDEGTYECVVLKYEKDAFKREHLAEVTLSVKADFPTPSISDFEIPTSNIRRIICSTSGGFPEPHLSWLENGEELNAINTTVSQDPETELYAVSSKLDFNMTTNHSFMCLIKYGHLRVNQTFNWNTTKQEHFPDNLLPSWAITLISVNGIFVICCLTYCFAPRCRERRRNERLRRESVRPV
